One molecule from patent publication EP4796128A1 (Celltrion, Inc., dated 2025) can be followed below.

Assay [1] addresses T1, recombinant human c-Met (human, UniProt P08581 25-932).
T1 construct: Recombinant protein used in ELISA and BLI; also called human c-MET protein; human-derived c-Met protein
Nature of the assay: BLI, ADC as loading sample, human c-Met. For orientation: BLI is a label-free optical method that tracks binding on a fibre tip over time.

Assay [2] addresses T2, monkey c-Met (cynomolgus c-Met) (monkey (cynomolgus), UniProt A0A2K5UM36 25-932).
T2 construct: Recombinant protein used in ELISA and BLI; also called monkey-derived c-MET protein; recombinant monkey c-Met
The assay can be described thus: ELISA on monkey (cynomolgus) c-Met. For orientation: In an ELISA, binding on a coated surface is turned into a signal by an enzyme label.

Assay [3] addresses T1, recombinant human c-Met. Nature of the assay: ELISA on recombinant human c-Met.
For assay [4], the target named is c-Met protein expressed on the surface of tumor cells (UniProt P08581). Nature of the assay: cell-based or functional assay.
Assay [5] concerns the target T2, monkey c-Met (cynomolgus c-Met). Nature of the assay: BLI, ADC as loading sample, monkey c-Met.

T1 sequence (P08581 25-932 limits assumed): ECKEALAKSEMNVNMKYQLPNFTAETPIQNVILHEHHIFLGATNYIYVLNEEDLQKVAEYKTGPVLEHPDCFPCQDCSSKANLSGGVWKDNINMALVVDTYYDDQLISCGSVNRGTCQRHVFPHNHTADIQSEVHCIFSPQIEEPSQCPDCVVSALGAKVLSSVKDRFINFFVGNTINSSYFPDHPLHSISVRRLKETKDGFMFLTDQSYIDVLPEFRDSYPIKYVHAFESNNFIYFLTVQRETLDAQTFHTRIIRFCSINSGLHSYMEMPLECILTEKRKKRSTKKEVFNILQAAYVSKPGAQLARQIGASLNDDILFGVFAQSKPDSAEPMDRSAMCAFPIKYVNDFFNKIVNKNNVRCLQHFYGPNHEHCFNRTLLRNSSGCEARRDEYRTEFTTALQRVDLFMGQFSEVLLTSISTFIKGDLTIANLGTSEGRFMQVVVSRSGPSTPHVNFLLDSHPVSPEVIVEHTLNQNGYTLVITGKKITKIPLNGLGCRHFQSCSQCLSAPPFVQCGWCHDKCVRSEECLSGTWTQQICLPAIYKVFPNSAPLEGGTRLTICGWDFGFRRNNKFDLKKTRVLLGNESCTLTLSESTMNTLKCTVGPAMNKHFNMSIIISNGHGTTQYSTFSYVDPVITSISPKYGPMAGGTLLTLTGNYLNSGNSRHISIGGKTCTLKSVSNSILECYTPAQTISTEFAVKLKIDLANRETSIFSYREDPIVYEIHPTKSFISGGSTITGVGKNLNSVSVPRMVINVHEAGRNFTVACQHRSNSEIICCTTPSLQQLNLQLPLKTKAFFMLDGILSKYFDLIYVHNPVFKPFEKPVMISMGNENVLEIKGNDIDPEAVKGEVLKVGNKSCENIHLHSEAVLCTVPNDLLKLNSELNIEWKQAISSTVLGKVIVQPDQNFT

B1: M01-PBX-7016 (Example 3), anti-c-Met antibody-drug conjugate (other)
heavy: QVQLVQSGAEVKKPGASVKVSCKASGYIFTAYTMHWVRQAPGQGLEWMGWIKPNNGLANYAQKFQGRVTMTRDTSISTAYMELSRLRSDDTAVYYCARSEITTEFDYWGQGTLVTVSS[human IgG1 constant region not spelt out]
light: DIVMTQSPDSLAVSLGERATINCKSSESVDSYANSFLHWYQQKPGQPPKLLIYRASTRESGVPDRFSGSGSGTDFTLTISSLQAEDVAVYYCQQSKEDPLTFGGGTKVEIKRTVAAPSVFIFPPSDEQLKSGTASVVCLLNNFYPREAKVQWKVDNALQSGNSQESVTEQDSKDSTYSLSSTLTLSKADYEKHKVYACEVTHQGLSSPVTKSFNRGEC
modifications: mc-GGFG-PBX-7016 linker-payload on a cysteine thiol made by TCEP reduction of the disulfides; 1 drug on each light chain (D1) by LC-MS; position not given; mc-GGFG-PBX-7016 linker-payload on cysteine thiols made by TCEP reduction of the disulfides; 3 drugs on each heavy chain (D3) by LC-MS; positions not given
notes: also called ADC (M01-PBX-7016)
What is called Kd is the concentration at which binding is half-saturated. In general, koff refers to the first-order rate constant of dissociation. By kon is commonly meant a measure of how fast the partners come together. As usually defined, the EC50 is the midpoint of the concentration-response curve. B1: in the assay with recombinant human c-Met [1], the equilibrium dissociation constant (Kd) turned out to be 0.774 nM, the koff stood at 6.29e-05 s⁻¹ and the kon was 81300 M⁻¹ s⁻¹. This molecule came in with an EC50 in assay [2] of 0.11 nM. Besides, the EC50 with recombinant human c-Met [3] was 0.12 nM. In assay [4], the “IC50, in-vitro cell viability (CellTiter-Glo, 6 days), HT29 cells” value stood at 8.7 nM; the “IC50, in-vitro cell viability (CellTiter-Glo, 6 days), NCI-H1573 cells” value was found to be 6.1 nM; the “IC50, in-vitro cell viability (CellTiter-Glo, 6 days), SNU-5 cells” value was found to be 0.11 nM. In assay [5], the affinity, expressed as Kd, was 0.917 nM; the koff came out at 9.17e-05 s⁻¹; the kon is 100000 M⁻¹ s⁻¹.
